# Laboratory results: paper PMC4336329 (PLoS ONE, 2015)
# The whole screen tested about 310,000 compounds, of which about 14,000 (4.5%) showed an effect of 50% or more. Effects have a minus sign here. The list shows a part of the results.
# Target: human ether-à-go-go-related gene (hERG) potassium channel (human, UniProt Q12809)
# Test: primary screen, population patch clamp on CHO cells stably expressing hERG
# 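Also: peak tail current of the secondary pulse compared with the same well before compound.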
# Chain of human ether-à-go-go-related gene (hERG) potassium channel (Q12809 whole entry, looked up): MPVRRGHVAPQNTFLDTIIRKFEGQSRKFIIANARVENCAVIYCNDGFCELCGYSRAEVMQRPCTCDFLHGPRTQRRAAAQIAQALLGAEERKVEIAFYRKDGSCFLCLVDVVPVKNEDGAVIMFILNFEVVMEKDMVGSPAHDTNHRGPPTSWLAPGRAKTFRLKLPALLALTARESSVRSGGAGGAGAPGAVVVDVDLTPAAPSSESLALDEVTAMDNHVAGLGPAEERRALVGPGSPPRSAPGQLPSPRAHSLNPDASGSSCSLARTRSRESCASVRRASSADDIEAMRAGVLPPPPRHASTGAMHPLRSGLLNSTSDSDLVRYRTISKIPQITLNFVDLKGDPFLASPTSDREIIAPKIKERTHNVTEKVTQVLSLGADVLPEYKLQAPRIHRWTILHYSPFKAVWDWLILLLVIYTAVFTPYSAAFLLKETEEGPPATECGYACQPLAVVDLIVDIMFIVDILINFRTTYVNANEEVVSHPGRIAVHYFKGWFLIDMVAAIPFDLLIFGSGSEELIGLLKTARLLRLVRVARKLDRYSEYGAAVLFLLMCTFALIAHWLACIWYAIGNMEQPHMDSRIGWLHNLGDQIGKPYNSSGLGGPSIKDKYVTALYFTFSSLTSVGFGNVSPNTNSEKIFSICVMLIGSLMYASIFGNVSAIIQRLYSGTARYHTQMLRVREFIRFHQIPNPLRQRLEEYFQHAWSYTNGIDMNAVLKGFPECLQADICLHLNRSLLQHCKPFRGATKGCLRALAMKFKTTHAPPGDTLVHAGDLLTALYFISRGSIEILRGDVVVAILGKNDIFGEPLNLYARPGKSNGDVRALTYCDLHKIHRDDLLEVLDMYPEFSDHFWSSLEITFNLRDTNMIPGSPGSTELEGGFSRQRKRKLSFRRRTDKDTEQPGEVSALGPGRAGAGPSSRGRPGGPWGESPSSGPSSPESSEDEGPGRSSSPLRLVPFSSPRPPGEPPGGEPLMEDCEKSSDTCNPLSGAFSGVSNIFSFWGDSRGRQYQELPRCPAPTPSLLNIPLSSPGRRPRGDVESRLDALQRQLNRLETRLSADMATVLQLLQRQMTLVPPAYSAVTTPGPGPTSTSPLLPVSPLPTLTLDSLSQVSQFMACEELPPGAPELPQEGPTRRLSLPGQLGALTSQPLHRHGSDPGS
row,Compound,"hERG current change (%, negative = inhibition) at 10uM [%]"
1,Cc1cc(=O)oc2c(C)c(OC(C)C(=O)NCc3ccccn3)ccc12 (stereo not drawn),-6.72
2,CS(=O)(=O)N1CCC(C(=O)Nc2cccc(Cl)c2)CC1,2.18
3,CC1CCCCC1Nc1ncnc2sccc12 (stereo not drawn),-10.8
4,COc1cccc(-c2nnc(-c3ccco3)o2)c1,-9.51
5,CCn1cc(C(=O)NC2CCC(C)CC2)c(=O)c2cc(S(=O)(=O)N3CCCCC3)ccc21 (stereo not drawn),-22.5
6,c1ccc2nc(-c3nccs3)ccc2c1,2.23
7,CC1CCCCC1NC(=O)COC(=O)Cc1ccc(Cl)cc1 (stereo not drawn),15.2
8,Cc1ccc(-n2nc3c(=O)n(CCCC(=O)N4CCC(C(N)=O)CC4)nc(C)c3c2C)cc1,13.1
9,Cc1ccc(C(=O)NC2CC3CCCC(C2)N3Cc2ccccc2)cc1 (stereo not drawn),-40.4
10,COc1ccccc1NC(=S)NCCc1ccccc1,-17.3
11,Cc1nc(NCC2CCCO2)c2nnn(Cc3c(F)cccc3Cl)c2n1 (stereo not drawn),13.3
12,CSc1ccc(CCNS(=O)(=O)c2ccc3c(c2)C(C)(C)C(=O)N3C)cc1,-19.1
13,CCC(C)NC(=O)Cn1cnc2sc(C)c(S(=O)(=O)N3CCN(c4ccccc4OC)CC3)c2c1=O (stereo not drawn),21.8
14,CC(C)NS(=O)(=O)c1ccc(NC(=O)c2cccnc2)cc1,8.45
15,O=C(COC(=O)c1ccc2c(c1)OCO2)Nc1ccccc1Cl,8.17
16,O=c1nc2sc3ccccc3n2c(=O)n1-c1cccc(Cl)c1,1.38
17,C/C(=N/NC(=O)C(C)n1nc(C)c([N+](=O)[O-])c1C)c1ccc(OCC(N)=O)cc1 (stereo not drawn),9.03
18,Cc1ccccc1-n1c(C)cc(/C=C2/C(=O)NC(=O)N(Cc3ccco3)C2=O)c1C,5.64
19,CC(=O)Nc1ccc(N2CCCCC2)cc1,7.26

row,Compound,"hERG current change (%, negative = inhibition) at 10uM [%]"
1,CC(=O)c1cccc(NC(=O)Nc2nc(C)cc(C)n2)c1,17
2,CN(C)C(CNc1ccc(S(C)(=O)=O)cc1[N+](=O)[O-])Cc1ccccc1 (stereo not drawn),-38.9
3,CCC(C)C(NC(=O)c1ccccc1NC(=O)c1ccco1)C(=O)NNC(=O)c1ccncc1 (stereo not drawn),-13.8
4,Cc1ccc(S(=O)(=O)c2cc(N3CCOCC3)nc(-c3ccccc3)n2)cc1,3.87
5,CCN(CC)c1ccc(/C=N/O)cc1,18.3
6,CNS(=O)(=O)c1cccc(C(=O)OCC(=O)c2cc(C)n(CC3CCCO3)c2C)c1 (stereo not drawn),-38.6
7,CCc1cc(=O)oc2c(C)c(OCC(=O)NCCCN3CCOCC3)ccc12,-31.8
8,Cc1ccc2c(c1)N(CC(=O)NCCCN1C(C)CCCC1C)C(=O)c1cccnc1O2 (stereo not drawn),-3.31
9,Cc1cc(C)nc(NC2=NCC(=O)N2c2ccc3c(c2)OCCO3)n1,3.75
10,C(#CCN1CCOCC1)COCc1ccccc1.Cl,11.1
11,Cl.OC(COCc1ccccc1)CN1CCN(c2ccccc2F)CC1 (stereo not drawn),-45.9
12,CCOC(=O)c1cc(C)[nH]c(=S)c1C#N,-23.4
13,Oc1ccc(Nc2nc(-c3ccc4ccccc4c3)cs2)cc1,1.13
14,NC(=O)NC1CCCc2c1[nH]c1ccc(Cl)cc21 (stereo not drawn),5.54
15,CN(CCC#N)CC(=O)Nc1ccc(S(N)(=O)=O)cc1,13.3
16,CC1=NN(Cc2ccccc2)C(=O)C1C(c1ccccc1)C(C#N)C#N (stereo not drawn),8.71
17,Cn1c(CNC(=O)c2ccco2)nnc1SCC(=O)Nc1ccccc1Cl,-2.04
18,CCc1cccc(C)c1N(C(=O)Cn1c(COC)nc2ccccc21)C(C)COC (stereo not drawn),-3.41
19,COc1ccc(CCNC(=O)c2cccc(S(=O)(=O)NC(C)c3ccccc3)c2)cc1 (stereo not drawn),6.04

row,Compound,"hERG current change (%, negative = inhibition) at 10uM [%]"
1,CCn1c2c(c3cc(Br)ccc31)CCC/C2=N\O,5.26
2,Clc1ccc2c(N/N=C/c3ccc(Br)cc3)ccnc2c1,18.7
3,CCc1ccc(S(=O)(=O)Nc2cccc(-c3ccc4nncn4n3)c2)s1,7.63
4,COc1cc(S(=O)(=O)NCCCn2ccnc2)ccc1F,9.47
5,CCCCc1nnc(NC(=O)C2CC(=O)N(c3ccc4c(c3)OCCO4)C2)s1 (stereo not drawn),11
6,C=C(C)CSc1nnc([C@@H](N)Cc2c[nH]c3ccccc23)o1.Cl,8.43
7,Cc1ccccc1N1CC(C(=O)N2CCCCCC2)CC1=O (stereo not drawn),4.33
8,CC1=CC(c2ccccc2)n2ncnc2N1 (stereo not drawn),-0.295
9,CC(=O)Oc1ccc2nc(/C=C/c3ccccc3)oc(=O)c2c1,19.5
10,CCN1CCN(c2ccc(NC(=O)c3ccc(OC)c(S(=O)(=O)N4CCCC4)c3)cc2)CC1,-6.16
11,CCCCN(CCCC)CCNC(=O)CN1C(=O)CSc2ccc(S(=O)(=O)N3CCOCC3)cc21,-38.8
12,COc1ccc(Cl)cc1C(=O)CSc1nnnn1C1CCCC1,-6.05
13,O=C(NCc1ccc2c(c1)OCO2)c1ccc2snnc2c1,-15.6
14,COc1ccc(N2C(=O)CC(Nc3ccc(F)cc3)C2=O)c([N+](=O)[O-])c1 (stereo not drawn),-33
15,Cc1c(-c2cc(Br)ccc2O)nc2cc3c(cc2c1C)OCO3.Cl,13.2
16,CC(C)(C)NS(=O)(=O)c1ccc(N2C(=O)c3ccccc3C2=O)cc1,2.77
17,COCCNC(=O)CCCn1c(=O)c2cc(OC)c(OC)cc2n(CC(=O)Nc2ccc(F)cc2)c1=O,4.07
18,CSc1ccccc1NC(=O)C1CC(c2c(F)cccc2Cl)=NO1 (stereo not drawn),13.8
19,O=C(CNC(=O)c1cc(=O)[nH]c2ccccc12)Nc1ccc(F)c(F)c1,15.1
